From PubChem BioAssay AID686971 (National Center for Advancing Translational Sciences (NCATS), 2013)
Values joined by “and” are separate entries in the source; they are usually repeats but may differ in a detail not shown here. Equal entries are not always repeated. Among all 360,000 compounds or so, about 7,500 (2.1%) were called active. This list was built around the results that the source calls inconclusive (neither active nor inactive); the mix of calls is not that of the screen. Calls come from the whole dose curve; as a rule, active = well fitted cell-killing curve with a large enough effect; inconclusive = small, poorly fitted or top-dose-only effect, or effect the other way, or another doubt; inactive = no such curve, though single readings can be large or run the other way. A potency beside an inconclusive call is a rough fit, not a confirmed value.
Potency is the fitted concentration of half-maximal effect; tags give direction and shape of the fitted curve.

Experiment: qHTS for induction of synthetic lethality in tumor cells producing 2HG: qHTS for the HT-1080-IDH1KD cell line;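 for activity, negative = toxicity: 0% = DMSO wells and -100% = cell-free medium wells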
Details: HT-1080 IDH1 knockdown viability, ATP luminescence, 48 h; activity, negative = toxicity: at 46.1 µM (top of the series) unless noted
Summary of the method: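 Using the IDH1-knockdown HT-1080 line run in the same batch and compound series as the NT line, viability after 48 h at 37 °C was determined by CellTiter-Glo luminescence and expressed as % activity.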
For `O=C(NCCCC(=O)N1CCCCC1)c1ccc(Cl)cc1`, the Potency was “inactive”. For `Cc1sc2nc(CN(C(=O)c3cccs3)C3CCCC3)[nH]c(=O)c2c1C`, the Potency was inconclusive: 20.6 µM [cytotoxic, single point]. With `O=C1[C@@H](c2ccccc2)[C@@H](c2ccccc2)N1c1cccnc1` the Potency was active: 16.4 µM. In the case of `Cc1ccc(C)c(-n2c3nc(=O)[nH]c(=O)c-3cc3cc([N+](=O)[O-])ccc32)c1`, the Potency is reported as active: 5.17 µM. With `CCOc1ccc(S(=O)(=O)NCc2ccncc2)cc1NC(=O)c1ccccc1F` the Potency was active: 23.1 µM. In the case of `CCOC(=O)C1(CCCc2ccccc2)CCN(Cc2cnc(C)s2)CC1`, the Potency is reported as inconclusive: 7.31 µM [cytotoxic, partial curve, poor fit]. With `N#Cc1c(N2CCSCC2)nsc1-c1ccccc1Cl` the Potency was inconclusive: 29.1 µM [cytotoxic, single point]. In the case of `O=C(Nc1ccc(Cl)c(Cl)c1)c1ccc(Cn2c(=O)[nH]c3ccsc3c2=O)cc1`, the Potency is reported as “inactive”. In the case of `Cc1ccc(S(=O)(=O)c2nc(-c3ccccc3Br)oc2N(C)C)cc1`, the Potency is reported as inconclusive: 20.6 µM [cytotoxic, single point]. In the case of `CC(=O)OC1CCC2(C)C(=CCC3C4CC(=O)N(O)C(=O)C4(C)CCC32)C1` (stereo not drawn), the Potency is reported as active: 25.9 µM. With `Cc1cccc(C)c1NC(=S)NC(=O)CCc1ccccc1` the Potency was active: 11.2 µM. With `Cc1nc2ccc(S(=O)(=O)Nc3cc(-c4nc5cccnc5s4)ccc3C)cc2s1` the Potency was inconclusive: 20.6 µM [cytotoxic, single point]. In the case of `COc1ccc(C2C(C#N)=C(N)Oc3c2ccc2cccnc32)cc1OC` (stereo not drawn), the Potency is reported as active: 0.651 µM. For `CSc1ccc(S(=O)(=O)Nc2ccc3c(c2)NC(=O)CC3)cc1`, the Potency was active: 16.4 µM. With `COc1cccc(CC(NC(C)=O)C(=O)NC2CCN(C(=O)Nc3ccc(C)cc3)CC2)c1` (stereo not drawn) the Potency was “inactive”. For `CCOC(=O)CS(=O)(=O)c1nc(-c2ccc(F)cc2)cc(C(F)(F)F)n1`, the Potency was active: 13 µM. With `S=C1SCN(Cc2ccco2)CN1Cc1ccco1` the Potency was active: 13 µM. In the case of `N#C/C(=C(/O)CCl)c1nc2c(s1)CCc1ccccc1-2`, the Potency is reported as inconclusive: 13 µM [cytotoxic, partial curve]. In the case of `Cc1ccccc1C(=O)N1CCC(C(=O)NCc2ccc(Cl)cc2)CC1`, the Potency is reported as “inactive”. With `COc1cc(/C=C/[N+](=O)[O-])ccc1OCc1cccc(C(=O)O)c1` the Potency was inconclusive: 20.6 µM [cytotoxic, single point]. For `Cc1[nH]nc2c1C(c1cccc(O)c1)C1=C(CC(C)(C)CC1=O)N2` (stereo not drawn), the Potency was “inactive”. In the case of `CC(=O)c1sc(NC(=O)COc2ccc(C)c(C)c2)nc1C`, the Potency is reported as “inactive”. For `O=C(C[n+]1cccc(C(=O)Nc2ccccc2)c1)c1ccc(Cl)cc1`, the Potency was inconclusive: 29.1 µM [cytotoxic, single point]. For `Fc1ccc(NC(=S)NN=Cc2ccccc2Cl)cc1`, the Potency was “inactive”. In the case of `O=C(Nc1cccc(OC(F)(F)F)c1)C1Cc2c(-c3cccc(F)c3)ccnc2O1` (stereo not drawn), the Potency is reported as inconclusive: 23.1 µM [cytotoxic, single point]. With `O=C(CS)Nc1ccc2ccccc2c1` the Potency was active: 20.6 µM. For `CC(=O)Nc1ccc(-c2ccnc3c2CC(C(=O)Nc2ccc(Cl)c(C(F)(F)F)c2)O3)cc1` (stereo not drawn), the Potency was inconclusive: 29.1 µM [cytotoxic, single point]. For `Cc1ccc(C(C(=O)NC2CCCCC2)N(Cc2cccnc2)C(=O)C2COc3ccccc3O2)o1` (stereo not drawn), the Potency was inconclusive: 1 µM [rising, full curve, poor fit]. For `CCN1C[C@@H]2[C@@H]3C(=O)N(C)C(=O)[C@@H]3[C@](CC)(C1=O)N2C(=O)c1ccc(C)cc1`, the Potency was “inactive”. For `COc1ccc(NC(=O)C2CCCN2S(=O)(=O)c2cccc3cccnc23)c(OC)c1` (stereo not drawn), the Potency was “inactive”. For `COc1ccnc(NCc2ccc(Cl)cc2)c1C#N`, the Potency was inconclusive: 35.5 µM [cytotoxic, single point]. With `CC(C)(C)S(=O)N1Cc2ccc(CO)cc2[C@@H]1CCO` (stereo partly drawn) the Potency was “inactive”. For `CCN(CC)CCn1c(SCC(=O)Nc2ccc3c(c2)CCC3)nc2ccccc2c1=O`, the Potency was inconclusive: 29.1 µM [cytotoxic, single point]. For `COc1ccc(NC(=O)c2ccc(COc3ccccc3Br)o2)c(OC)c1`, the Potency was inconclusive: 18.4 µM [cytotoxic, single point]. For `Brc1ccccc1CN1CCC(Cc2ccccc2)CC1`, the Potency was inconclusive: 23.1 µM [cytotoxic, single point]. For `CC(NC(=O)C1CCN(Cc2ccc(Oc3ccccc3)cc2)CC1)c1cccc2ccccc12` (stereo not drawn), the Potency was active: 10.3 µM. For `Cc1ccc(Cc2c(C3CCCCC3)nc3ccc(Br)cn23)cc1`, the Potency was inconclusive: 29.1 µM [cytotoxic, single point]. For `CC(C)(C)OC(=O)C[C@@H]1C/C=C\C[C@H](CC(=O)N(CCO)Cc2ccccc2)C(=O)NCCOC1=O`, the Potency was “inactive”. For `COc1cc(Br)cc2cc(C(=O)OC3CCN(C)CC3)c(=O)oc12`, the Potency was inconclusive: 35.5 µM [cytotoxic, single point]. In the case of `FC(F)(F)c1cc(Cl)c2nc(-c3cccc(Cl)c3)c(Cc3cccc(Cl)c3)n2c1`, the Potency is reported as inconclusive: 29.1 µM [cytotoxic, single point]. In the case of `C/C(=N/NC(=O)COc1cc(C)ccc1C(C)C)C(=O)O`, the Potency is reported as active: 6.51 µM. For `O=C1c2ccccc2-c2onc3ccc(N4CCCC4)c1c23`, the Potency was inconclusive: 25.9 µM [cytotoxic, single point]. In the case of `O=c1[nH]c(/C=C/c2ccc(Br)cc2)nc2ccccc12`, the Potency is reported as “inactive”. For `CCOC(=O)c1c(NC(=O)C[n+]2ccc(Cc3ccccc3)cc2)sc(C)c1C`, the Potency was inconclusive: 18.4 µM [cytotoxic, single point]. For `O=c1[nH]c(=O)n(C2CCCO2)cc1F` (stereo not drawn), the Potency was “inactive”. In the case of `COc1ccc(NC(=O)Cn2nnc(C(=O)NCc3ccccc3OC)c2N)cc1Cl`, the Potency is reported as inconclusive: 10 µM [cytotoxic, partial curve]. For `COc1cccc(NC(=O)c2ccc3c(c2)OCCO3)c1`, the Potency was inconclusive: 11.6 µM [cytotoxic, partial curve]. In the case of `CCCCCOc1ccc(Br)cc1CSC(=N)N`, the Potency is reported as inconclusive: 18.4 µM [cytotoxic, partial curve]. With `NC(c1ccccc1)c1cccs1` (stereo not drawn) the Potency was “inactive”. For `CC(C)[C@H]1CN=C2N(C[C@H](C)NC(=O)CCC3CCCCC3)[C@H](Cc3ccc(O)cc3)CN21`, the Potency was inconclusive: 5.17 µM [cytotoxic, partial curve]. With `O=C(O)c1ccc(COc2ccc3ccccc3c2/C=C2/NC(=O)N(Cc3ccc(F)cc3)C2=O)cc1` the Potency was inconclusive: 14.6 µM [cytotoxic, partial curve]. With `Cc1cc(Nc2ccccc2)n(C(=O)c2ccc(Cl)cc2)n1` the Potency was inconclusive: 35.5 µM [rising, single point]. For `O=C(NCc1ccccc1F)C1CCCN(C(=O)Nc2ccccc2)C1` (stereo not drawn), the Potency was inconclusive: 32.6 µM [cytotoxic, single point]. With `COc1ccc(OC)c(Nc2nc(-c3ccc(O)c(O)c3)cs2)c1` the Potency was inconclusive: 20.6 µM [cytotoxic, partial curve]. In the case of `Cc1c(NC(=O)c2cc(-c3ccc(F)cc3)nc3ccccc23)c(=O)n(-c2ccccc2)n1C`, the Potency is reported as “inactive”. With `O=S(=O)(NNc1ncc(C(F)(F)F)cc1Cl)c1ccc(F)cc1F` the Potency was “inactive”. For `O=C(C[N+]1(CC#Cc2ccccc2)CCOCC1)c1ccc(Cl)cc1`, the Potency was inconclusive: 29.1 µM [cytotoxic, single point]. In the case of `CC(C)(C)SCCNC(=O)/C=C/c1ccc(F)cc1`, the activity, negative = toxicity is reported as inconclusive: 30.5%. In the case of `COc1ccc(Nc2cc(C(=O)NCCCN3CCN(C)CC3)c3ccccc3n2)c(OC)c1`, the Potency is reported as “inactive”. In the case of `O=C(N/N=C/c1ccc(Cl)c(Cl)c1)c1ccc2nc[nH]c2c1`, the Potency is reported as inconclusive: 9.2 µM [cytotoxic, partial curve]. In the case of `COc1ccc(-c2nc(NC(=O)Cn3ccc(C(F)(F)F)n3)sc2C)cc1`, the Potency is reported as inconclusive: 16.4 µM [cytotoxic, partial curve]. In the case of `CCOC(=O)C(C)Sc1nc(-c2ccco2)cc(C(F)(F)F)c1C#N` (stereo not drawn), the Potency is reported as inconclusive: 20.6 µM [cytotoxic, single point]. With `C=CCSc1nsc(NC(=O)Nc2ccc(F)cc2)n1` the Potency was active: 2.91 µM. For `O=C(Nc1ccc(Cl)cc1C(=O)NCCN1CCOCC1)c1ccc(Cl)cc1Cl`, the Potency was “inactive”. In the case of `COc1ccc(CN2CCc3c([nH]c4ccccc34)C2)c(OC)c1C`, the Potency is reported as active: 14.6 µM. With `O=S(=O)(Nc1ccc(-c2ccccc2)cc1)c1ccccc1` the Potency was inconclusive: 29.1 µM [cytotoxic, single point]. In the case of `CC(NCCC(c1ccccc1)c1ccccc1)c1ccccc1` (stereo not drawn), the Potency is reported as inconclusive: 29.1 µM [cytotoxic, single point]. In the case of `Cc1ccc(S(=O)(=O)c2ncccc2[N+](=O)[O-])cc1`, the Potency is reported as active: 23.1 µM. For `COc1ccc(-c2cc(NC=O)c3ncc(-c4cccc(C(=O)NCCN(C)C)c4)n3c2)cc1`, the Potency was inconclusive: 29.1 µM [cytotoxic, single point]. For `O=C(O)c1ccc(CSc2nnnn2-c2ccc(F)cc2)cc1`, the Potency was “inactive”. With `O=C(CCCCCNC(=S)Nc1ccc(Cl)cc1)C[N+](=O)[O-]` the Potency was inconclusive: 29.1 µM [cytotoxic, single point]. With `COc1ccc(CCNC(=O)c2ccc3nc(-c4ccco4)c(-c4ccco4)nc3c2)cc1OC` the activity, negative = toxicity was inconclusive: -30.1% [cytotoxic]. For `CCN1CCN(Cc2ccc(NC(=O)c3cc(NC(=O)c4cc5cccc(OC)c5o4)cc(OC)c3)cc2C(F)(F)F)CC1`, the Potency was inconclusive: 32.6 µM [cytotoxic, single point] and inconclusive: 20.6 µM [cytotoxic, single point].
